# Reference: PubChem BioAssay (Tox21)
# Values joined by “and” are separate entries in the source; they are usually repeats but may differ in a detail not shown here. Identical values can stand only once. Inconclusive means that the source gave no clear call. Such entries were picked first, then a sample of the others. For some of these results: Potencies of inconclusive entries are doubtful fits and often do not repeat. Where a structure was tested more than once in an assay, its records may differ in their call. Active and inactive are the calls of the source. Unless noted, calls follow the shape of the dose curve; as a rule, active = well fitted curve in the direction sought with a large enough effect in the repeat runs; inconclusive = weak or mixed curves; inactive = no such curve, though single readings can be large; an effect the other way counts as inactive or inconclusive.
# Legend:
# [1] = qHTS assay to identify small molecule antagonists of the androgen receptor (AR) signaling pathway - cell viability counter screen (AID 743033; also: nearly all actives have a fitted effect of over 45% in size; also: potency is read from the fitted curve at half-maximal effect; as to activity change, negative = cytotoxicity: % is scaled to controls: 0 for no effect and ±100 for the full control effect); conditions: AR-bla HEK293 viability, CellTiter-Glo luminescence, 16 h; activity change, negative = cytotoxicity: at 58.5 µM (top of the series) unless noted
# [2] = qHTS assay to identify small molecule antagonists of the thyroid receptor (TR) signaling pathway - cell viability counter screen (AID 743064); conditions: GH3.TRE-Luc viability, CellTiter-Fluor, 24 h; activity change, negative = cytotoxic: at 70.3 µM (top of the series) unless noted; also: potency is read from the fitted curve at half-maximal effect; nearly all actives have a fitted effect of over 50% in size
# Method in brief: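 Viability of T3-stimulated (1 nM final) GH3.TRE-Luc cells is measured by CellTiter-Fluor fluorescence after 23.5 h compound exposure at 37 °C plus 30 min reagent incubation.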
# [3] = tested on: thyroid hormone receptor (rat, GH3 cells); assay: qHTS assay to identify small molecule agonists of the thyroid receptor (TR) signaling pathway (AID 743066; calls by dose curve; also: potency is read from the fitted curve at half-maximal effect; as to activation: % is scaled to controls: 0 for no effect and ±100 for the full control effect); conditions: GH3.TRE-Luc cells, TR agonist luciferase, 24 h; activation: at 83.9 µM (top of the series) unless noted
# Aromatase (Homo sapiens) = Aromatase (Homo sapiens) (UniProt P11511); assay: qHTS assay to identify aromatase inhibitors (AID 743083); conditions: MCF-7 aro ERE, testosterone-driven ERE luciferase, 24 h; activity, negative = inhibition: at 70.3 µM (top of the series); also: nearly all actives have a fitted effect of over 55% in size; also: potency is read from the fitted curve at half-maximal effect; as to activity, negative = inhibition: % is scaled to controls: 0 for no effect and ±100 for the full control effect
# Chain of UniProt P11511 (P11511 whole entry, looked up): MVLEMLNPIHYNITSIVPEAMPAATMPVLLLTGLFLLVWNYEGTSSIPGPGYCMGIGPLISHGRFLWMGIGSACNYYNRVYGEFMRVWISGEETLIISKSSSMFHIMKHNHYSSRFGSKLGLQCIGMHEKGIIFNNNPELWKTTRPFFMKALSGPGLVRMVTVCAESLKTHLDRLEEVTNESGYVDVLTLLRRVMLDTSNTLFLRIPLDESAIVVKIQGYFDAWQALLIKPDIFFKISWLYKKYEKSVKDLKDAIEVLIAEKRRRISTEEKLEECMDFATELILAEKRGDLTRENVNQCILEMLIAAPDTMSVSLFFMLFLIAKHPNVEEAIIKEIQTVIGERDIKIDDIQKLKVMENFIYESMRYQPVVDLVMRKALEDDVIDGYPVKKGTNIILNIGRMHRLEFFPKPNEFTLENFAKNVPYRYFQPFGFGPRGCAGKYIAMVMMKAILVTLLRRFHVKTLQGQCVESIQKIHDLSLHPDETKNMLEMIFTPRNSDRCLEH
# [4] = qHTS assay to identify small molecule antagonists of the estrogen receptor alpha (ER-alpha) signaling pathway - cell viability counter screen (AID 743074; calls by dose curve; also: nearly all actives have a fitted effect of over 45% in size; also: potency is read from the fitted curve at half-maximal effect)
# [5] = qHTS assay to identify aromatase inhibitors - cell viability counter screen (AID 743084); conditions: MCF-7 aro ERE viability, CellTiter-Fluor, 24 h; activity change, negative = cytotoxicity: at 70.3 µM (top of the series) unless noted;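 also: cells stimulated with testosterone during compound exposure; potency is read from the fitted curve at half-maximal effect; nearly all actives have a fitted effect of over 55% in size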
# [6] = qHTS assay to identify small molecule that activate the aryl hydrocarbon receptor (AhR) signaling pathway - cell viability counter screen (AID 743086); also: nearly all actives have a fitted effect of over 45% in size; also: potency is read from the fitted curve at half-maximal effect
# Method in brief: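 Cytotoxicity counter screen: CellTiter-Fluor signal (30 min, 37 C) in 4000 HepG2 cells/well carrying the DRE-luciferase reporter, following 24 h compound exposure at 37 C.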
# [7] = biological target: Peroxisome proliferator-activated receptor gamma (Homo sapiens) (UniProt P37231); assay: qHTS assay to identify small molecule agonists of the peroxisome proliferator-activated receptor gamma (PPARg) signaling pathway (AID 743094; active = well fitted activation curve with a large enough effect in the signal ratio in the repeat runs, not every such curve was filed as active; inconclusive = weak or mixed curves, or effect the other way; inactive = no such curve, though single readings can be large or run the other way; the % refers to the signal ratio; also: % is scaled to controls: 0 for no effect and ±100 for the full control effect); conditions: HEK293H PPARg-UAS-bla, beta-lactamase FRET ratio, 17 h; activation: at 57 µM (top of the series) unless noted
# Chain of UniProt P37231 (P37231 whole entry, looked up): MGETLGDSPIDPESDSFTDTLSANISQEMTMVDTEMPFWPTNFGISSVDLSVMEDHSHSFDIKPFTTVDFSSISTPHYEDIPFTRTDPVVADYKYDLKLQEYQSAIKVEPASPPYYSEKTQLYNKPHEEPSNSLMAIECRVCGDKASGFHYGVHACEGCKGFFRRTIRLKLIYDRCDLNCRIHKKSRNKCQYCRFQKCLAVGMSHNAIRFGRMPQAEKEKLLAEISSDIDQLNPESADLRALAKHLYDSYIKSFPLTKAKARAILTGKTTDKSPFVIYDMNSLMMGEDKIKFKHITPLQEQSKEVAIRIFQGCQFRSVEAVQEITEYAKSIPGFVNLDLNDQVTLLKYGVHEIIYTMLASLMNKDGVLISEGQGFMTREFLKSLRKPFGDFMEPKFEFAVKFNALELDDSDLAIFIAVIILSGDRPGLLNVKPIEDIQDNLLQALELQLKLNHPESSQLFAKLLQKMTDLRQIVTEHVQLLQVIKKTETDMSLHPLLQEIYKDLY
# Method in brief: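 Reporter activation was scored by fluorescence of cleaved LiveBLAzer B/G substrate (1 h, room temperature) in PPARg-bla HEK293H cells previously treated 17 h at 37C with DMSO-dissolved compounds.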
# [8] = biological target: Estrogen receptor (Homo sapiens) (UniProt P03372); assay: qHTS assay to identify small molecule antagonists of the estrogen receptor alpha (ER-alpha) signaling pathway (AID 743069; active = well fitted curve in the direction sought with a large enough effect in the signal ratio in the repeat runs, not every such curve was filed as active; inconclusive = weak or mixed curves, or effect the other way; inactive = no such curve, though single readings can be large or run the other way; the % refers to the signal ratio; also: potency is read from the fitted curve at half-maximal effect); conditions: HEK293 ER-alpha-UAS-bla, beta-lactamase ratio, antagonist mode; activity, negative = inhibition: at 69.4 µM (top of the series) unless noted
# Chain of UniProt P03372 (P03372 whole entry, looked up): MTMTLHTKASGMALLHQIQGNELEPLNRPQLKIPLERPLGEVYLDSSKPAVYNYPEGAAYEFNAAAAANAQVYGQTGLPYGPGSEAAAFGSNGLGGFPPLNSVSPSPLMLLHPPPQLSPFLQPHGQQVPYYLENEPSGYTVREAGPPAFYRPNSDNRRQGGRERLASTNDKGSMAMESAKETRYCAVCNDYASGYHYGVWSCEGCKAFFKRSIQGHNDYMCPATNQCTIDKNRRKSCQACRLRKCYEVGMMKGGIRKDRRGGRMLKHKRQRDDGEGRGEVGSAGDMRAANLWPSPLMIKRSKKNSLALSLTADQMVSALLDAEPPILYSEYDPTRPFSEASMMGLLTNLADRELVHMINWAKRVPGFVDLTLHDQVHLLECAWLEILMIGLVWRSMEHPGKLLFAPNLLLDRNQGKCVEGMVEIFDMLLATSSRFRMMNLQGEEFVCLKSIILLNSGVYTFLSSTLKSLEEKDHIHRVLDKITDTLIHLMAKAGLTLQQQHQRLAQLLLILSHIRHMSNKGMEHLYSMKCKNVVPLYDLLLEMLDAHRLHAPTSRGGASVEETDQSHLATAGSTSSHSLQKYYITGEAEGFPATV
# Method in brief: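 Fluorescence intensity from a beta-lactamase FRET substrate served as the read-out. Cells: HEK293 with stably integrated ER-alpha-UAS-bla reporter. Agonist 17beta-estradiol was co-added with compounds; incubation 18 hr at 37C, substrate 2 hr at room temperature.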
# [9] = qHTS assay to identify small molecule antagonists of the estrogen receptor alpha (ER-alpha) signaling pathway using the BG1 cell line (AID 743080; calls by dose curve; also: nearly all actives have a fitted effect of over 25% in size; also: potency is read from the fitted curve at half-maximal effect); conditions: BG1Luc4E2 ERE-luciferase antagonist mode, luminescence; activity change, negative = inhibition: at 70.3 µM (top of the series) unless noted
# Method in brief: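 Antagonist mode: compounds in DMSO were pinned onto BG1-Luc-4E2 cells alongside 17beta-estradiol agonist, incubated 21.5 h, and ERE-driven luciferase measured with ONE-Glo. Cytotoxicity was multiplexed using CellTiter-Fluor fluorescence.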
# [10] = qHTS assay to identify small molecule antagonists of the estrogen receptor alpha (ER-alpha) signaling pathway using the BG1 cell line - cell viability counter screen (AID 743081); conditions: BG1Luc4E2 viability, CellTiter-Fluor, 22 h; activity change, negative = cytotoxicity: at 70.3 µM (top of the series);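 also: compound given together with 17beta-estradiol as the ER stimulus; potency is read from the fitted curve at half-maximal effect; nearly all actives have a fitted effect of over 45% in size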
# [11] = qHTS assay to identify small molecule antagonists of the thyroid receptor (TR) signaling pathway (AID 743065); also: nearly all actives have a fitted effect of over 55% in size; also: potency is read from the fitted curve at half-maximal effect
# Method in brief: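 Antagonism measured as loss of luciferase signal in GH3 cells stably carrying a TRE-luciferase reporter, co-treated with compound and T3 (1 nM final) for 23.5 h at 37 C. Viability was read in the same well by CellTiter-Fluor.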
# [12] = biological target: Estrogen receptor (Homo sapiens) (UniProt P03372); assay: qHTS assay to identify small molecule agonists of the estrogen receptor alpha (ER-alpha) signaling pathway using the BG1 cell line (AID 743079); conditions: BG1Luc4E2 cells, ERE-luciferase agonist, 22 h; activation: at 70.3 µM (top of the series) unless noted; also: nearly all actives have a fitted effect of over 20% in size; also: potency is read from the fitted curve at half-maximal effect
# [13] = biological target: Aryl hydrocarbon receptor (Homo sapiens) (UniProt P35869); assay: qHTS assay to identify small molecule that activate the aryl hydrocarbon receptor (AhR) signaling pathway (AID 743085); also: nearly all actives have a fitted effect of over 15% in size; also: potency is read from the fitted curve at half-maximal effect
# Chain of UniProt P35869 (P35869 whole entry, looked up): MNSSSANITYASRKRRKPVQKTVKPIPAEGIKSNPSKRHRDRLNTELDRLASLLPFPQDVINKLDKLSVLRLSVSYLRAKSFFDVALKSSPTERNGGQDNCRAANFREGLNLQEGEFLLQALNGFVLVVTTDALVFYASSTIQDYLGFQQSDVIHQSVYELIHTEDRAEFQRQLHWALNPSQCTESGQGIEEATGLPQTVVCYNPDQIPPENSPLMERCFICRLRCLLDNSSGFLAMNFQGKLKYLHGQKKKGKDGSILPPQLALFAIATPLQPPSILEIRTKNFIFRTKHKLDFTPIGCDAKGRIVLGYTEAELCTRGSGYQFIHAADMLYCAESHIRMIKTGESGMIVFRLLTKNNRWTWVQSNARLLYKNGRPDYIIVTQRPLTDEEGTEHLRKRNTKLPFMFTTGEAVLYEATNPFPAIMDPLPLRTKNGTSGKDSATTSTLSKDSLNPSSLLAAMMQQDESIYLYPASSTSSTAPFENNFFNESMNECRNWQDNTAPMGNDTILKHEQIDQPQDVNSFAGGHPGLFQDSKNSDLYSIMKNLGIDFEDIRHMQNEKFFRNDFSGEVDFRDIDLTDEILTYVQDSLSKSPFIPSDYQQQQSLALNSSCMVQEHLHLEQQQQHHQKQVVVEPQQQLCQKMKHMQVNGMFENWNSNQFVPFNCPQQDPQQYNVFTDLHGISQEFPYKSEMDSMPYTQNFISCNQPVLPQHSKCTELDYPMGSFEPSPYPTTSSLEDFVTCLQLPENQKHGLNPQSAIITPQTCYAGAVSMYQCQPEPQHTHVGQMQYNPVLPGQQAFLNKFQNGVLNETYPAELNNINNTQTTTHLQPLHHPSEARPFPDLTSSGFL
# Method in brief: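 A multiplexed format paired cell viability (CellTiter-Fluor fluorescence) with AhR-dependent luciferase output (ONE-Glo luminescence) in the same wells of HepG2 DRE-luc cells after 24 h compound exposure at 37C.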
# Tags tell the direction and shape of the fitted curve or compound fluorescence and quenching.
smiles,measurement,setting,value
O=P1(NCCCl)OCCCN1CCCl (centres undefined),Potency,[1],inconclusive: 0.0003 µM [cytotoxic]
same,Potency,[2],"inconclusive: 6.11 µM [rising, single point]"
same,Potency,[3],"inconclusive: 61.1 µM [activator, partial curve]"
same,Potency,Aromatase (Homo sapiens),inactive
C#CCC1=C(C)C(OC(=O)C2C(C=C(C)C)C2(C)C)CC1=O (centres undefined),Potency,[1],"inconclusive: 48.6 µM [cytotoxic, single point]"
same,Potency,[2],"inconclusive: 68.1 µM [cytotoxic, single point]"
same,activation,[3],inconclusive: -8.82% [phenotype inactive]
same,Potency,[4],inactive
same,Potency,Aromatase (Homo sapiens),"inconclusive: 68.1 µM [inhibitor, single point]"
same,Potency,[5],"inconclusive: 76.4 µM [cytotoxic, single point]"
same,Potency,[6],inactive
same,activation,[7],inconclusive: -14.5%
N#CC(O)c1ccccc1 (centres undefined),Potency,[1],inactive
same,Potency,[2],"inconclusive: 68.5 µM [rising, single point]"
same,Potency,[7],inactive
O=C(OC1CCCCC1)c1ccccc1C(=O)OC1CCCCC1,Potency,[1],inconclusive: 51.6 µM [cytotoxic]
same,Potency,[3],inactive
same,Potency,[8],inconclusive: 51.6 µM
same,"activity change, negative = inhibition",[9],inconclusive: -12.4% [at 95 µM]
same,Potency,Aromatase (Homo sapiens),"inconclusive: 72.3 µM [inhibitor, single point]"
COc1ccc2c3c1O[C@H]1[C@@H](O)C=C[C@H]4[C@@H](C2)N(C)CC[C@@]341,Potency,[1],inactive
same,Potency,[8],inactive
same,Potency,[4],"inconclusive: 60.7 µM [rising, single point]"
same,Potency,[10],"inconclusive: 67.5 µM [cytotoxic, partial curve, poor fit]"
same,Potency,[6],inactive
O=C(O)CC(O)(CC(=O)O)C(=O)O,"activity change, negative = cytotoxicity",[1],inconclusive: -32.9% [cytotoxic]
same,Potency,[11],inactive
same,Potency,[4],"inconclusive: 379 nM [cytotoxic, full curve, poor fit] and inactive"
same,Potency,[7],inactive
CCCCN(CCCC)SN(C)C(=O)Oc1cccc2c1OC(C)(C)C2,Potency,[1],inactive
same,Potency,[11],"inconclusive: 31.1 µM [inhibitor, partial curve]"
same,Potency,[3],"inconclusive: 49.3 µM [inhibitor, partial curve, poor fit]"
same,activation,[3],inconclusive: -8.61% [phenotype inactive]
same,Potency,[8],inconclusive: 54.9 µM
same,"activity, negative = inhibition",[8],inconclusive: -0.152% [at 79.1 µM]
same,Potency,[4],"inconclusive: 0.0626 µM [cytotoxic, full curve, poor fit]"
same,Potency,[12],inactive and active: 54.5 µM
same,Potency,[9],inactive
same,Potency,Aromatase (Homo sapiens),"inconclusive: 24.3 µM [inhibitor, partial curve, poor fit]"
same,Potency,[13],"inconclusive: 34.4 µM [activator, partial curve]"
same,Potency,[6],inactive
same,activation,[7],inconclusive: -12.3%
c1ccc2c(c1)Nc1ccccc1S2,Potency,[1],"inconclusive: 1.74 µM [cytotoxic, full curve]"
same,Potency,[11],"inconclusive: 54.5 µM [inhibitor, partial curve]"
same,Potency,[8],"inconclusive: 7.56 µM [activator, full curve, poor fit] and inactive"
same,Potency,[4],"inconclusive: 0.616 µM [rising, full curve, poor fit]"
same,Potency,[12],active: 26.6 µM and active: 38.6 µM
same,Potency,[10],"inconclusive: 27.3 µM [cytotoxic, single point]"
same,Potency,Aromatase (Homo sapiens),"inconclusive: 27.3 µM [inhibitor, partial curve, poor fit]"
same,Potency,[6],"inconclusive: 77 µM [falling, partial curve, poor fit]"
same,activation,[7],inconclusive: -11.5%
C=C1C[C@@H]2[C@H](CC[C@]3(C)C(=O)CC[C@@H]23)[C@@]2(C)C=CC(=O)C=C12,Potency,[1],"inconclusive: 0.0038 µM [cytotoxic, full curve, poor fit]"
same,Potency,[11],"inconclusive: 29.8 µM [inhibitor, partial curve]"
same,Potency,[8],"inconclusive: 21.3 µM [activator, partial curve]"
same,Potency,[9],"inconclusive: 15 µM [rising, partial curve]"
same,Potency,[13],inactive
CO/C=C(/C(=O)OC)c1ccccc1COc1cccc(C(F)(F)F)n1,Potency,[1],active: 3.46 µM
same,Potency,[8],"inconclusive: 1.09 µM [rising, full curve]"
same,Potency,[4],"inconclusive: 2.45 µM [cytotoxic, full curve]"
same,Potency,[12],"inconclusive: 3.43 µM [inhibitor, partial curve]"
same,Potency,[9],active: 2.17 µM
same,Potency,[10],"inconclusive: 12.2 µM [cytotoxic, partial curve]"
same,Potency,[5],active: 61.1 µM
same,activation,[7],inconclusive: -5.95%
